Assay results as given in PubChem BioAssay AID588855 (National Center for Advancing Translational Sciences (NCATS), 2011).
Where “and” joins values, the source holds several entries; their conditions need not be identical. Equal entries are not always repeated. About 5,000 (1.2%) of roughly 410,000 compounds were called active. The shares of active, inactive and inconclusive entries below differ from those in the screen. The call rests on the fitted dose curve; in most records, active means well fitted inhibition curve with a large enough effect; inconclusive means small, poorly fitted or top-dose-only effect; inactive means no such curve, though single readings can be large or run the other way. Potencies of inconclusive entries are doubtful fits and often do not repeat.

Assay: qHTS for Inhibitors of TGF-b; further: nearly all actives have a fitted effect of over 65% in size
Conditions: HepG2 CAGA-GFP TGF-b/SMAD3 reporter, GFP fluorescence, 18 h, TGF-beta stimulated, 500 pg/mL final; series mostly up to 46.1 µM
Summary of the method: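 Cell-based qHTS in HEPG2 carrying a CAGA-GFP Smad reporter; compounds added before 500 pg/mL final TGF-beta, 18 h incubation at 37 degrees C, GFP fluorescence quantified per cell by imaging cytometry.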
Potency means the concentration at half of the fitted maximal effect; tags describe the fitted curve by direction and shape.

Compound	Potency
COc1ccc(-n2c(=O)c3ccccc3n(CC(=O)Nc3ccccc3OC)c2=O)cc1	inconclusive: 12.6 µM [inhibitor, single point]
CC(C)n1cnc2c(Nc3ccc(F)c(Cl)c3)nc(NCCO)nc21	inconclusive: 35.5 µM [inhibitor, single point]
CCCN1CCC(=O)N([C@H](COc2ccccc2)c2ccccc2)CC1	inconclusive: 11.2 µM [inhibitor, partial curve, poor fit]
Cc1ccc(-c2nc(N=Nc3ccc(O)cc3)n[nH]2)cc1	inconclusive: 7.94 µM [inhibitor, partial curve]
COC(=O)c1ccc(NC(=O)c2ccc(CN3CCOCC3)cc2)cc1	inconclusive: 5.62 µM [inhibitor, full curve, poor fit]
COCCNc1nc(Oc2cccc(NC(C)=O)c2)c2sc(-c3ccccc3)cc2n1	inconclusive: 35.5 µM [inhibitor, single point]
COc1ccccc1/C=C/C(=C1/C(=O)N(c2ccccc2)N=C1C)c1ccc(C)cc1	inconclusive: 0.794 µM [inhibitor, partial curve, poor fit]
COc1cccc(NC(=O)C(=S)NC2CCCCC2)c1	inconclusive: 35.5 µM [inhibitor, single point]
CC1CCCC(NC(=S)Nc2cccc(S(=O)(=O)N(C)C)c2)C1C (stereo not drawn)	inconclusive: 22.4 µM [inhibitor, single point]
CC(C)(C)c1ccc(S(=O)(=O)N2CCN(Cc3cc4c(cc3O)OCO4)CC2)cc1	inconclusive: 7.08 µM [inhibitor, partial curve]
O=C(C[n+]1cc(Br)cc2ccccc21)c1ccc(Br)cc1	inconclusive: 20 µM [inhibitor, single point] and inconclusive: 35.5 µM [inhibitor, single point]
Cc1ccc(CNC(=O)CN2C(=O)COc3ccc(S(=O)(=O)Nc4ccccc4)cc32)cc1	inconclusive: 2.82 µM [inhibitor, partial curve, poor fit]
O=C(CNC(=O)COc1ccccc1)NCCN1CCOCC1	inactive
CC(C)(C)OC(=O)N1CCC(c2nnc(SCc3cccc(Cl)c3)o2)CC1	inactive
C/C=C(/C)C(=O)O[C@@H]1[C@H](OC(C)=O)c2c(ccc3ccc(=O)oc23)OC1(C)C	inconclusive: 22.4 µM [inhibitor, partial curve, poor fit]
Cc1ccc(C(=O)NCC(=O)Nc2ccccc2C)o1	inactive
COC(=O)C1=C(C)NC(=O)/C1=C\c1cc(C)n(-c2cc(C)cc(C)c2)c1C	inconclusive: 20 µM [inhibitor, single point]
Cc1ccc(O)c(-c2[nH]ncc2C(=O)c2ccc(Br)cc2)c1	inconclusive: 14.1 µM [inhibitor, single point]
Cc1ccccc1Nc1c(-c2ccc(N3CCOCC3)cc2)nc2ccccn12	inconclusive: 14.1 µM [inhibitor, partial curve, poor fit]

Compound	Potency
COc1ccccc1CNC(=O)CCC1N=C2c3ccccc3N=C(SCc3ccc(C)cc3C)N2C1=O (stereo not drawn)	inconclusive: 7.08 µM [inhibitor, full curve]
N=c1n(Cc2ccccc2)c2ccccc2n1CC(O)COc1ccc(Cl)cc1Cl (stereo not drawn)	inconclusive: 22.4 µM [inhibitor, single point]
C=C[C@@]1(C)C[C@H](OC(=O)CSC(C)(C)CNC(=O)[C@@H](N)C(C)C)[C@@]2(C)C(C)CC[C@@]3(CCC(=O)[C@@H]32)[C@H](C)[C@H]1O (stereo partly drawn)	inconclusive: 12.6 µM [inhibitor, partial curve]
C=CCOc1ccc(/C=C2\SC(=S)N(NS(=O)(=O)c3ccccc3)C2=O)cc1	inactive
CC(C)(C)C1CCc2nc(NC(=O)Cc3cn4ccsc4n3)sc2C1 (stereo not drawn)	inconclusive: 11.2 µM [inhibitor, single point]
CC1=C(C(=O)N(C(C)C)C(C)C)CC(CC(=O)NC2CC2)C(=O)N1Cc1ccc(F)cc1 (stereo not drawn)	inconclusive: 10 µM [inhibitor, partial curve]
Cc1cccc(C)c1-n1nnnc1C(c1ccnc2ccccc12)N1CCN(C/C=C/c2ccccc2)CC1 (stereo not drawn)	inconclusive: 11.2 µM [inhibitor, partial curve, poor fit]
Cc1ccc2nc3sc(C(=O)NCCCN(C)c4ccccc4)cc3cc2c1	inconclusive: 35.5 µM [inhibitor, single point]
C/C=C/c1ccc(OCCCCOc2c(OC)cccc2OC)c(OC)c1	inconclusive: 31.6 µM [inhibitor, single point]
O=[N+]([O-])c1cccc(/C=C/c2nc3ccc([N+](=O)[O-])cc3[nH]2)c1	inconclusive: 25.1 µM [inhibitor, single point]
Cc1cc(C)c(S(=O)(=O)Nc2ccc3c4c(cccc24)CC3)c(C)c1	active: 8.91 µM
COc1ccc(Cl)cc1NS(=O)(=O)c1cccc(C(=O)NC2CC2)c1	inconclusive: 6.31 µM [inhibitor, single point]
CC1CC(C)CN(S(=O)(=O)c2ccc(NC(=O)c3ccc(=O)[nH]c3)cc2)C1 (stereo not drawn)	inconclusive: 3.16 µM [inhibitor, partial curve, poor fit]
C[C@@H]1CC=C[C@H]2[C@H]1C(=O)N(Cc1ccccc1)[C@H]2c1ccc(-c2ccc(F)cc2)cc1F	inconclusive: 0.178 µM [inhibitor, full curve, poor fit]
CCn1cc(/C=C/C(=O)Nc2ccc(C)cc2Br)cn1	inactive
Cc1nc(N2CCC(C)CC2)c2c(C)c(C(=O)Nc3ccc4c(c3)OCCO4)sc2n1	inactive
COCC1CCCN(Cc2cn(-c3ccccc3F)nc2-c2cc(C)sc2C)C1 (stereo not drawn)	inconclusive: 11.2 µM [inhibitor, partial curve, poor fit]
CC(NS(=O)(=O)c1ccc(Br)s1)c1ccccc1 (stereo not drawn)	inconclusive: 35.5 µM [inhibitor, single point]
CCCCc1cc(=O)oc2cc(C)cc(OCC(=O)O)c12	inconclusive: 35.5 µM [inhibitor, single point]
